Measurements published in the RNAGym collection of RNA variant scans (doi:10.7554/elife.90254).
Read counts are not given, so values of variants with three or more changes are uncertain.

B1: LINE1-mini (parent)
chain: GGCAGAGCUCAACACAGCGUGGCAAAGUGGCUGUGGCUAGACUGCC

Variants of: B1
Test: self-cleavage, relative activity (ratio to wild type); higher = more cleavage; in vitro, sequencing; the parent is a self-cleaving ribozyme

Variant	self-cleavage
C10A A12C G21A G27C U28G A39U	0
U9G G21U G22A G29U	0.04
U9G G17C G40C	0.15
C10A C13U A14C G17A G22U C23A	0.04
C10A A26G C31U	0
C10A A16C C23A G27U	0.03
C10A A16G G27U	0.06
U9G C37A G40U C42A C46A	0.07
C10A A11C C13G G35U	0.01
C10A A26C G36A G44U	0
C10A A25C G35A C42A	0.03
U9G G22C A39U	0.02
C10A A16G G40U	0.01
C10A A11U C23G G36U	0
C10A A12G G21A	0.01
U9G G22C U34A C45A	0.03
U9G G22C G33U G36C	0.01
U9G U20C G33C A41C	0.01
C10A C13U G19U C31U	0.06
U9G G27C G33A	0
C10A A14G C18A C31A	0.07
C10A A11C G27A U34A	0.04
U9G G35A C37G U43C	0.04
C10A C15U A25C G36C U43C	0.01

Variant	self-cleavage
C10A A11C G27A C31A	0.03
U9G G29A G35A	0.09
C10A A11C C23A A24C G33U A39G	0.01
C10A A12U C23U G27A G30U	0.02
C10A A12G G33A A39G C46A	0.02
C10A A26U C42U	0.03
U9G C15U C18U U20A U28G G35U C42A	0.02
U9G G21U G27C G36U C37A	0.28
C10A C13G G33A U43A	0
C10A A14G U38G	0.11
U9G G22U C23A	0.07
U9G G21C C31G U38G G44U	0.01
U9G G17C C23A	0.27
C10A C13A G17C G22C U38G C45U	0
C10A A12C A24G G35A	0
U9G G21C G33C C46U	0.03
C10A A41G C45G	0.02
C10A A14G G21C A41U G44A	0.01
C10A A12C G21U	0.01
U9G G21C U32C G33A	0.02
C10A A11C A14C G21A U38A	0
C10A C13U A16G G19U	0.01
C10A A14U U38G	0.05
U9G G17U U20C G30U	0.02

Variant	self-cleavage
C10A A14C C15A	0.04
U9G U28C C31A	0.2
U9G C23A G40A	0.06
C10A A25U U38C A39U	0.03
U9G C18A U20G G22U U28C C46U	0.02
C10A C13G A14U	0.03
U9G U32C G33A C37U	0.04
U9G G19A G35U C45A	0.09
C10A A12G C18A	0.03
U9G G19A A25C C31A C45A	0.03
U9G C18A G30C	0.03
C10A C13A C31G U38C	0.05
C10A A11C U20A A24U A25U	0.01
C10A C13A A16C	0.04
C10A A11U C37A	0.02
C10A A11G A26G G30C C37U	0
U9G G17C C18G	0.06
C10A A14U G17C U20A	0.02
C10A A26C G29A C31U U32G A41G	0
U9G G35A G36U C45G	0.15
C10A A12C U20A G44U	0.01
C10A A14G G29U	0.01
C10A A11U U28G C46A	0
U9G U20A G36A	0.12

Variant	self-cleavage
C10A C15A G19A A39G	0.01
U9G C15G G35U C37A	0.02
C10A A25C U38A	0.06
U9G G36A U38G	0.05
U9G C37A G44C	0.13
C10A C13A U20C	0
U9G G17C C42A	0.03
C10A C15G U34C A39C	0
U9G U20A G22A U32C C37G G40A C42U C45U C46G	0.03
U9G C31G C37G G40A G44A	0.02
C10A A12U G27C	0.06
C10A A16G G19C G36U U43G C45G	0
U9G C31U A39U C42U	0.02
U9G C15G G19A C31U A39G	0.02
U9G G17C G35C	0.02
C10A C15G G19A	0.03
U9G G22C C46U	0.09
U9G C18U C42U	0.24
U9G U28C C46G	0.03
U9G G19C G29U	0.05
C10A A16G C23G C37A C45U	0
U9G G17C C18A G29C C37A A41C	0.02
U9G G17A C46U	0.05
C10A A39G G40A	0.02

Variant	self-cleavage
C10A C13G G17C G22U A41U	0.02
C10A A11U A25U	0
U9G U20A G27C	0.06
C10A A11U U20C G22U G33U	0.02
C10A A12G G33U U38G A39C	0
C10A C15G C46U	0.02
C10A A14G A24U A41C	0
U9G G27U G36C	0.09
U9G G22A G44C	0.06
C10A A12C G33C G44U	0
U9G U38A C45A	0.08
U9G C15G A39G C45G	0.1
C10A A12U G27A C31A U32C G33U	0
U9G C31A G44A	0.04
C10A A12G C42G	0.03
C10A C15A U20A C46A	0.01
U9G C18A G27C G33A	0.03
C10A A14G U38A U43A	0.03
U9G G19U A25C G29C U38C	0.03
C10A A25G U38A	0.18
C10A A24G C46U	0.05
U9G G19A G22A	0.03
U9G G27A G30U	0.06
U9G G17A C18U C37U A39U G40U	0.01

Variant	self-cleavage
C10A A41C C42U C45G	0.01
U9G G36U G40U	0.03
C10A A11U U28C	0.04
U9G U20C A25U	0.03
C10A A12C G22C	0.03
C10A A24C U32G G36A G40C	0.07
U9G G27U C31U	0.03
C10A A16G U43C	0
C10A A24U A39G	0.03
C10A A11G C31U G33U	0.02
U9G G27C C37A	0.09
U9G G27U C46U	0.55
C10A C13A G19A G27U	0.02
U9G U20C U32A	0.02
U9G G21A U28C U38G C46G	0.01
C10A A16C C23G A25C	0.01
C10A C15U A26C G27U C31U	0
C10A C13A G30C G35U	0.04
U9G G17C G19C U20A A24C A26C U28G C42G	0.02
U9G U34C C37U	0
C10A A26U A39G	0.03
U9G G19C C42U	0.02
C10A A14C G44C	0.02
U9G G27U A41U	0.06

Variant	self-cleavage
C10A C13G A24G C31U C42G	0.02
C10A A26G G27U G33C U38C G44A	0
C10A A16C G29U	0.03
C10A C13U A16G C18A	0.06
C10A A14C G21U G27A G33U A39G	0.01
C10A A26U U32C C37U G40U	0.02
C10A A14C C37U C46U	0
C10A A12U G22U G33U	0.02
U9G G17U G21C G22A C31U	0.01
C10A A14U U20A A25U G27C U32C C42U C45A	0
U9G C37G U38G	0
U9G G21A U28G G29C	0.03
C10A C13U G17A G29C G40C	0.03
C10A A12C A14C A41G	0
U9G U32G G40C C42A	0.01
C10A A24U G29U	0.05
C10A A11U C13A G22U	0.01
U9G C23U U32C	0.08
C10A A12U C15G G40U C46A	0.03
C10A A11C G30U	0.03
U9G G22A G30A	0.07
U9G G19C A25G U34G A39U	0.01
C10A C13A G40A C42U	0.01
